According to PMC4336329 (PLoS ONE, 2015):
Hit rate of the full screen: of about 310,000 compounds, about 14,000 (4.5%) showed an effect of 50% or more. Effects have a minus sign here. Some of the results follow.

These compounds were tested against human ether-à-go-go-related gene (hERG) potassium channel (human, UniProt Q12809) (assay: primary screen, population patch clamp on CHO cells stably expressing hERG).
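Further: peak tail current of the secondary pulse compared with the same well before compound.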

human ether-à-go-go-related gene (hERG) potassium channel, sequence (Q12809 whole entry, looked up): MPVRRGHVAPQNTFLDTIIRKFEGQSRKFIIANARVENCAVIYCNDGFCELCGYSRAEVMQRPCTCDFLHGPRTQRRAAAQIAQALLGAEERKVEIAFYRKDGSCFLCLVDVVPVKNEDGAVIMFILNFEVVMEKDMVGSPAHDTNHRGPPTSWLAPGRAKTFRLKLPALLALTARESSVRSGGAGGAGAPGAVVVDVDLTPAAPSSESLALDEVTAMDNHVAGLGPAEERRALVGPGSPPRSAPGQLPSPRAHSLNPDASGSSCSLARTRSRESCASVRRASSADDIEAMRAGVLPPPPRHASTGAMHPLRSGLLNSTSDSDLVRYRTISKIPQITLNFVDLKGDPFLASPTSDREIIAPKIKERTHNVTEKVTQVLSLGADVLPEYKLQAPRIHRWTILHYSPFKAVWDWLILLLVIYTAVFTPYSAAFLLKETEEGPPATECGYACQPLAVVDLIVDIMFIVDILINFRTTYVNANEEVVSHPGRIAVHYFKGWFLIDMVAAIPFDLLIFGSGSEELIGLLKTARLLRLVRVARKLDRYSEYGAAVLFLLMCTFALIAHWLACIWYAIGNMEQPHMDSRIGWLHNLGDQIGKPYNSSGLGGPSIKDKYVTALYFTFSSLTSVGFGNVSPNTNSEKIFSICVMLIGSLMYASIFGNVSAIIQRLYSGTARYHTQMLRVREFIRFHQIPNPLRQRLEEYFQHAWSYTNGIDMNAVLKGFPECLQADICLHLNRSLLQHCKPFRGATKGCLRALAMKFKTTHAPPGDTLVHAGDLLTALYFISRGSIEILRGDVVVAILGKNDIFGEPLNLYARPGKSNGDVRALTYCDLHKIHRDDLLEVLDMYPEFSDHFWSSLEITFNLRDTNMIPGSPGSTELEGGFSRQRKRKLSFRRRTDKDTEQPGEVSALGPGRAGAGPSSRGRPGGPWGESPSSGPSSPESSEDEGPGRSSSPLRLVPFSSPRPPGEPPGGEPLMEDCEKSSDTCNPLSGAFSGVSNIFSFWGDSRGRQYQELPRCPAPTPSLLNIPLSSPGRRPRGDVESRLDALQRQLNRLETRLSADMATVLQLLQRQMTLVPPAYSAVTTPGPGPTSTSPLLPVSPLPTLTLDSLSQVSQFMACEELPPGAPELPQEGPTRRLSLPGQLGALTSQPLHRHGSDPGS

Point of comparison: C#CCOCCOCCOCCNc1nc(N2CCN(C(=O)Cn3cc(CCCC[NH3+])nn3)CC2)nc(N2CCN(C(=O)Cn3cc(CCC[NH+]=C(N)N)nn3)CC2)n1.[Cl-], “hERG current change (%, negative = inhibition) at 10uM” value 14.8%. Against it:
- O=C1C(=O)N(CCCN2CCOCC2)C(c2ccc([N+](=O)[O-])cc2)/C1=C(/O)c1ccc2c(c1)OCO2 (stereo not drawn) — lower, 6.91%
- COc1ccc(C=O)cc1COc1ccc([N+](=O)[O-])c(C)c1 — lower, -9.4%
- C/C(=N/n1cnnc1)c1cccnc1 — lower, -0.855%
- CC(=O)Oc1ccc(C(=O)Nc2ccc3c(c2)OCCO3)cc1 — higher, 24%
- O=C(Nc1cccnc1)Nc1ccc(F)c(Cl)c1 — lower, -36.8%
- O=C(Nc1ccccc1C(=O)N1CCCCC1)c1ccccc1C(F)(F)F — higher, 27.6%
- Cc1onc(-c2ccccc2)c1C(=O)NC(=S)NNC(=O)c1ccc(O)cc1O — higher, 18.1%
- COc1ccc2c(c1)c1nc3ccccc3nc1n2CC(=O)OC(C)C — higher, 23.5%
- Cc1ccc(Oc2ccc3c(c2)C(=O)N(c2ccc(S(=O)(=O)Nc4nccs4)cc2)C3=O)cc1 — lower, -4.83%
- Cc1ccc(-c2cc3nn(-c4ccccc4)c(N)c3c(=O)o2)cc1 — lower, 2.67%
- O=C(CSc1nc2ccccc2n1S(=O)(=O)c1ccccc1)N1CCCCC1 — lower, -0.857%
- Cc1ccc(/C=C2/SC(=S)N(CC(=O)Nc3ncc(Cc4ccc(C)cc4)s3)C2=O)cc1 — lower, -4.84%
- CCOC(=O)c1ccccc1NC(=O)CN(c1ccccc1)S(=O)(=O)N(C)C — lower, -19.9%
- CCN(CC)S(=O)(=O)c1cccc(-c2n[nH]c(=S)n2/N=C/c2ccc(C(=O)OC)cc2)c1 — lower, -34%
- CCOC(=O)c1ccc(Oc2cc(C)nc(Cl)n2)cc1 — lower, -17%
- CN(C)C(=O)C1Cc2ccccc2CN1S(=O)(=O)c1cccs1 (stereo not drawn) — lower, -13.1%
- COc1ccc(Br)cc1C(=O)NC(=S)Nc1ccc2[nH]c(=O)[nH]c2c1 — higher, 15.8%
- CS(=O)(=O)N1CCC(C(=O)NCCc2ccccc2)CC1 — lower, -3.47%
- CCCC(c1nnnn1CS(=O)(=O)c1ccc(C)cc1)N1CCN(C2CCCC2)CC1.Cl (stereo not drawn) — lower, -37.5%
- CCOc1ccc(-n2c(=O)c3c4c(sc3n(CC(=O)NCCCOC)c2=O)CCCCC4)cc1 — lower, -1.22%
- c1ccc2sc(C3CCNCC3)nc2c1 — lower, -2.73%
- O=P(Cc1nnco1)(c1ccccc1)c1ccccc1 — lower, 5.87%
- O=C(COc1ccc(-c2nnco2)cc1)Nc1c(F)cccc1F — lower, 0.851%
- OCCn1c(Cl)nc2ccccc21 — lower, 10.2%
- CN(CC(=O)Nc1ccc(F)cc1)C(=O)COc1ncnc2ccccc12 — lower, -19.3%
- COC(=O)C[C@H]1c2cc(C(F)(F)F)ccc2S(=O)(=O)N1C1CCCC1 — lower, -25.9%
- Cc1c(C#N)c2ccccc2n1CCOc1ccccc1F — lower, 2.19%
- c1cc2c(cc1CCNC1C3CC4CC(C3)CC1C4)OCO2 (stereo not drawn) — lower, -2.3%
- O=C(O)CCc1nc(-c2ccccc2)c(-c2ccccc2)o1 — lower, -7.49%
- CSc1ccc(CCNC(=O)Cn2ncc3c([nH]c4ccccc43)c2=O)cc1 — higher, 23.5%
- COc1ccc(CCNC(=O)C2CCCN2S(=O)(=O)c2ccc(F)cc2)cc1OC (stereo not drawn) — lower, 2.54%
- CCOC(=O)CNC(=O)c1ccc(Cl)s1 — higher, 17.9%
- CC(=O)c1cc2ccccc2oc1=O — lower, 2.96%
- O=C(CCCNC(=O)c1ccc(Cl)cc1)Nc1ncccc1O — lower, 2.65%
- COc1ccc(OCCc2nnc(N)s2)cc1 — lower, -7.08%
- CC(=O)c1ccc(N2CCN(C(=O)c3cc4c(C)nc5ccccc5c4o3)CC2)cc1 — lower, -9.16%
- Cc1cccc(N2CCN(S(C)(=O)=O)CC2)c1C — lower, 13.8%
- Cc1cccc(N(CC(=O)NCCSc2ccccn2)S(=O)(=O)c2ccccc2)c1 — lower, -18.1%
- CCN(C(=O)c1coc(=O)c2ccccc12)c1cc(OC)ccc1OC — lower, -0.0646%
- Cc1n[nH]c(=S)n1/N=C/c1ccc(OCc2ccc(Cl)cc2)cc1 — lower, 3.46%
- CN(c1ccc(C(=O)Nc2cccnc2)cc1)S(=O)(=O)c1ccc(Cl)cc1 — lower, 11.5%
- COc1ccc(S(=O)(=O)N/N=C(/C)c2ccco2)cc1 — lower, -6.76%
- O=C(O)C1C2C=CC(C2)C1C(=O)NCc1ccoc1 (stereo not drawn) — lower, 13.8%
- CCOC(=O)c1csc(NC(=O)c2cccs2)n1 — lower, -13.1%
- O=C(NCCCO)C(=O)NCC1OCCCN1S(=O)(=O)c1cccs1 (stereo not drawn) — lower, -10.6%
- COc1ccccc1N1CCN(/N=C(\C)c2ccccc2O)CC1 — lower, -1.09%
- COc1ccccc1Nc1nc(-c2ccc3c(c2)NC(=O)CO3)cs1 — lower, 11.1%
- CCOC(=O)c1cccc(NC(=O)N2CCOCC2)c1 — lower, -49.7%
- O=C(NCCCn1ccnc1)C(=O)NCC(c1cccnc1)N1CCN(c2ccccc2)CC1 (stereo not drawn) — higher, 23.3%
- CN(C)c1cc[n+](CC(=O)c2ccc(OC(F)F)cc2)cc1.[Br-] — lower, -21.5%
- CCOC(=O)C1=C(CC)Nc2ccccc2N/C1=N\S(=O)(=O)c1ccc2ccccc2c1 — lower, -0.916%
- O=C(CN1CCc2ccccc21)NCc1ccccc1Cl — lower, -18.5%
- CC(C)(C)NC(=O)C1Cc2ccccc2CN1C(=O)Nc1ccccc1Cl (stereo not drawn) — lower, 0.111%
- O=C1CCCN2N=C(SCC(=O)Nc3ccc(Cl)cc3)SC2=N1 — lower, -11.5%
- CC(C)[C@H](NC(=O)NC1CCCc2ccccc21)C(=O)O (stereo partly drawn) — lower, -68.2%
- C/C(N)=C(/C#N)C(=O)COC(=O)C1CSC2(c3ccc(F)cc3)CCC(=O)N12 (stereo not drawn) — lower, 10.2%
- CN1CCN(C(=O)c2cnn3c2NC(c2ccccc2)CC3C(F)(F)F)CC1 (stereo not drawn) — higher, 17.1%
- Cc1ccc(S(=O)(=O)NC(=O)NCc2ccccn2)cc1 — lower, -0.168%
- Cc1ccc(NC(=O)CN2c3cccc4cccc(c34)S2(=O)=O)cc1S(=O)(=O)N1CCOCC1 — lower, 0.358%
- CC(OC(=O)CN1C(=O)NC2(CCCCC2C)C1=O)c1ccccc1 (stereo not drawn) — lower, -42.4%
- Cc1ccccc1NC(=O)Cc1nc(CSc2nnc(C3CCCCC3)n2N)cs1 — lower, -12.2%
- CCC(C)C(=O)Nc1nnc(SCC(=O)NC(C)(C)C)s1 (stereo not drawn) — higher, 24.6%
- COC(=O)c1ccc(NC(=O)CCS(=O)(=O)c2ccc(Br)cc2)cc1 — higher, 28.8%
- COCCCNC(=O)c1ccccc1Oc1ccccc1 — lower, -0.0631%
- COc1ccc2c(CC(=O)OCC(=O)Nc3ccc(C)cc3)coc2c1 — lower, -1.56%
- COc1cccc(-n2nnnc2SCC(=O)Nc2ccc(OC)cc2OC)c1 — lower, -30.3%
- CCOc1ccc(CCNC(=O)c2ccc(C)c(N3CCCC3=O)c2)cc1OCC — lower, 9.19%
- CCCN(CC(=O)Nc1ccccc1C)C(=O)c1ccc(S(=O)(=O)N2CCCCC2)cc1 — lower, -20.6%
- O=C(NCc1ccc(F)cc1)C(=O)NCC1OCCN1C(=O)c1cccs1 (stereo not drawn) — lower, -4.15%
- Cc1ccc(C(=O)/C=C/C(=O)c2ccc(C)cc2)cc1 — lower, -5.92%
- CN(C)S(=O)(=O)c1ccc(Cl)c(NC(=O)COC(=O)C2CSC3(C)CCC(=O)N23)c1 (stereo not drawn) — lower, -6.02%
- COc1nc(Oc2ccc(=O)[nH]n2)nc(N2CCOCC2)n1 — lower, -9.56%
- COc1ccc(-n2nnnc2-c2cccnc2)cc1 — lower, 4.32%
- COC(=O)c1ccccc1NC(NC(=O)c1ccco1)C(=O)c1ccccc1 (stereo not drawn) — lower, -0.578%
- COc1cc(C(=O)NCC(=O)NCCN2C(=O)S/C(=C\c3ccccc3Cl)C2=O)cc(OC)c1OC — lower, -27.6%
- Cc1csc(NC(=O)CCN2C(=O)c3ccccc3S2(=O)=O)n1 — lower, -2.41%
- COc1cccc(CC(=O)Nc2nc(-c3ccc(OC)c(OC)c3)cs2)c1 — higher, 15.4%
- CC(=O)c1ccc(NC(=O)c2ccc(CNc3c(N4CCCC4)c(=O)c3=O)cc2)cc1 — lower, 6.96%
- Cc1cccc(NC(=S)Nc2c(C)n(C)n(-c3ccccc3)c2=O)c1C — lower, -2.23%
- COc1ccc(C2C(C#N)=C(N)OC3=C2C(=O)CC(C)(C)C3)c([N+](=O)[O-])c1OC (stereo not drawn) — lower, -44.5%
- COc1ccc(CCNc2nc(Cl)nc(NC(C)(C)CO)n2)cc1OC — higher, 25%
- Cc1cc(C)nc(NN2C(=O)/C(=C/c3ccccc3)SC2=S)n1 — lower, 5.58%
- CN1CCN(c2ccc(NC(=O)C(C)(c3ccccc3)c3ccccc3)cc2)CC1 — lower, -24.7%
- Cc1nc(-c2ccccc2)nc(Cl)c1Cl — lower, 9.95%
- CC(C)(C)OC(=O)N[C@H](C(=O)OC(C)(C)C)c1ccc(Br)cc1 — lower, -2.45%
- CCNc1nc(NC(C)(C)C)nc(SC(C(C)=O)C(C)=O)n1 — lower, -23.2%
